These results are taken from the supplement of paper PMC7826260.

This is one part of the list. The data describe in vitro nicking of single-stranded DNA by Rep domains (1 h at 37 °C, 3 µM enzyme); the outer parts of the 90-letter strands are left off. Values are log2 of uncut reads against the no-enzyme pool; the lower, the more was cut; hits are not called. The scaling is to total reads; where an enzyme cuts many sequences, the uncut ones exceed 0.

The assay relates to T1, Rep nickase domain of tomato golden mosaic virus.
T1 sequence (protein, residues 1-124, tag omitted): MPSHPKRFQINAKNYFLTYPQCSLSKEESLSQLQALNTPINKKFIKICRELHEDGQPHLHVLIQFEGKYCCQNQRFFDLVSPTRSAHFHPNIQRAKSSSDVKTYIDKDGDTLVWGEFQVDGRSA
Kind of assay: uncleaved DNA left, log2 of reads against the no-enzyme library (log2 ratio); higher = less cleavage (more negative = more Rep cleavage of the k-mer); sequences stand for … in CTCGTCCG…ACCGGAGA
As to the method:
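A pool of 90-nt single-stranded DNAs with seven random bases just before the constant AC of the nick site (name = the seven bases) was cut by 3 µM recombinant His6-SUMO-tagged Rep nickase domain (300 nM DNA, 50 mM HEPES pH 8.0, 50 mM NaCl, 1 mM MnCl2, 1 h, 37 °C, three replicates). Uncut DNA was amplified and sequenced.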
As to CACAGTC, the “uncleaved DNA left (log2)” value was -0.0538. To TCGATCA belongs 0.0549; to TATCCAT, 0.026; to CCGCCGA, -0.328.

In the case of ATTCGCC, the “uncleaved DNA left (log2)” value was -0.103. To AGGCCCT belongs -0.0044; to TCTTCCT, -0.224. As to TAATAGC, the “uncleaved DNA left (log2)” value is -0.611. Next, ACCTAAT: 0.287; ATCTGGA: 0.0823. Regarding ACTATTT, the “uncleaved DNA left (log2)” value was -0.053. Next, CTGCATG: -0.172; GACACGT: -0.0186; AGAAACC: 0.0204. For GTCGCCC, the “uncleaved DNA left (log2)” value was -0.0402. To CCGCCGC belongs -0.0381; to CGTCGCT, -0.0973. With TGTCTGA, the “uncleaved DNA left (log2)” value was -0.0305. To GCACAAA belongs -0.0162; to CGGTTCA, 0.027.

On to TGGTGTG, for which the “uncleaved DNA left (log2)” value is -0.0339. CCTTCTT: the “uncleaved DNA left (log2)” value was -0.111.

CAATACT: the “uncleaved DNA left (log2)” value is -4.04. AAGCGCT: the “uncleaved DNA left (log2)” value is -0.0824. As for TACACCC, the “uncleaved DNA left (log2)” value is -0.0611. Next, ACAATTC: 0.00859; AGGTTTG: -0.0679; GCCAACC: -0.119.

Consider TTACTCA, for which the “uncleaved DNA left (log2)” value is -0.0297.

For GATTGAA, the “uncleaved DNA left (log2)” value came to 0.132.

As to GTTCACA, the “uncleaved DNA left (log2)” value was 0.0421. As for GCGATGG, the “uncleaved DNA left (log2)” value is -0.0566. To CCGTAAT belongs -1.03.

Turning to AATGAGT, the “uncleaved DNA left (log2)” value is -0.113. In the case of GGTGATT, the “uncleaved DNA left (log2)” value was -0.0529. To GGGTTGG belongs 0.0248; to TCTTGAC, -0.152.

As for CTGATTG, the “uncleaved DNA left (log2)” value was -0.12. Next, AAGTGGC: 0.03; CTTCCTT: -0.152.
